The whole screen tested about 360,000 compounds, of which about 25,000 (6.9%) were called active. Inconclusive means that the source gave no clear call. Such entries were picked first, then a sample of the others. Calls follow the shape of the dose curve; as a rule, active = well fitted inhibition curve with a large enough effect; inconclusive = small, poorly fitted or top-dose-only effect; inactive = flat fitted curve, though single readings scatter. Potencies beside an inconclusive call are fits to weak or partial responses and may not hold up.
What follows are molecules tested against Luciferin 4-monooxygenase (Photinus pyralis) (UniProt P08659) (assay: qHTS profiling assay for firefly luciferase inhibitor/activator using purifed enzyme and Km concentrations of substrates (counterscreen for miR-21 project)). Conditions: purified FLuc, luminescence inhibition; activity change, negative = inhibition: at 57.5 µM (top of the series).
In short: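 Biochemical qHTS of compounds, final roughly 60 µM downward over six points, against 10 nM purified firefly luciferase using Km concentrations of substrates (10 uM D-luciferin, 10 uM ATP) in Tris acetate pH 7.5 buffer; luminescence output.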
Also: nearly all actives have a fitted effect of over 55% in size.
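For activity change, negative = inhibition in this document: plate controls were vehicle for no effect and reference inhibitor for full effect.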
Potency is read from the fitted curve at half-maximal effect; tags tell the direction and shape of the fitted curve.

UniProt P08659, sequence (P08659 whole entry, looked up): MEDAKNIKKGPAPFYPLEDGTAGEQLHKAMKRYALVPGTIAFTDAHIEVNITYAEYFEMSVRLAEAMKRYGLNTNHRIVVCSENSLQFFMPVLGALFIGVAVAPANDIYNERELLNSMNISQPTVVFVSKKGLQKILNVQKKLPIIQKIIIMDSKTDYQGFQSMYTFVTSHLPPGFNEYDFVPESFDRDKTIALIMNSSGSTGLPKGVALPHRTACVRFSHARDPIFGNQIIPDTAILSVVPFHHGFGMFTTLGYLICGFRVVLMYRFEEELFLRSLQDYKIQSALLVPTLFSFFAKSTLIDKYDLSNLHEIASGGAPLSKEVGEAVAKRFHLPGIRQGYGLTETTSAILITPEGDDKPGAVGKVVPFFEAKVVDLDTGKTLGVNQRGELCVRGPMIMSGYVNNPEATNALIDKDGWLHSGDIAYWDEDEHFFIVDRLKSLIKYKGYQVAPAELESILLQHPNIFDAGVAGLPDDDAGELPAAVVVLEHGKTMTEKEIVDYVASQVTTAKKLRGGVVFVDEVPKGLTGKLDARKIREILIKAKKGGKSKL

Structure (SMILES) | Potency | activity change, negative = inhibition
O=C(NC1CC1)c1cc2cc3ccccc3nc2s1 | active: 10.7 µM | 
C#CCSc1nc2sc3c(c2c(=O)n1-c1cccc(OC)c1)CCN(C(C)=O)C3 |  | inactive: -13.1%
COc1ccc(C(=O)N(CCc2ccccc2)Cc2ccccc2)c(OC)n1 |  | inactive: -1.25%
CC(C)OC(=O)/C(C#N)=C/c1c[nH]c2ccccc12 | inconclusive: 23.9 µM [inhibitor, single point] | 
O=C(N/N=C/c1cn(Cc2ccccc2)c2ccccc12)c1ccncc1 | inconclusive: 33.8 µM [inhibitor, partial curve, poor fit] | 
Cc1ccc(S(=O)(=O)Nc2ccc(-c3ccc(N4CCCCCC4)nn3)cc2)cc1C | inconclusive: 5.36 µM [inhibitor, partial curve, poor fit] | 
CN(C)/C=C/C(=O)c1ccc2noc(-c3ccc(F)cc3)c2c1 | inconclusive: 21.3 µM [inhibitor, partial curve, poor fit] | 
CC(=O)c1cccc(NC(=O)N2CCC(c3ccc(C)cc3)C2)c1 (stereo not drawn) | active: 16.9 µM | 
CCc1nn2c(-c3ccco3)ccnc2c1-c1ccc(F)cc1 | active: 10.7 µM | 
Cc1ccc(S(=O)(=O)N2CCCC2CNC(=O)c2ccc3c(c2)OCO3)cc1 (stereo not drawn) | inconclusive: 8.49 µM [inhibitor, single point] | 
COc1ccc(-c2n[nH]c3c2C(c2ccc(Cl)cc2Cl)NC3=O)cc1 (stereo not drawn) | inconclusive: 15.1 µM [inhibitor, partial curve, poor fit] | 
Cc1ccn2cc(-c3nonc3C)cc2c1 | active: 26.9 µM | 
Cc1cc(=O)[nH]c(Nc2ccc(C(=O)OC(C)C)cc2)n1 | inconclusive: 23.9 µM [inhibitor, partial curve, poor fit] | 
Cc1[nH]c2ccccc2c1C(=O)CSc1ccc(Cl)cc1 | inconclusive: 30.1 µM [inhibitor, partial curve, poor fit] | 
CCCCNc1c(-c2ccc(SC3CCCCC3)cc2)nc2ccccn12 | active: 4.78 µM | 
CCN(CCCNC(=O)c1ccc(Sc2ccc(C)cc2)c(NC(C)=O)c1)c1cccc(C)c1 | inconclusive: 10.7 µM [inhibitor, partial curve, poor fit] | 
CC1CCCN(C(=S)Nc2ccc(Nc3ccccc3)cc2)C1 (stereo not drawn) | inconclusive: 37.9 µM [inhibitor, partial curve, poor fit] | 
COc1ccc(OCc2cc(C(=O)N(C)Cc3cnccn3)no2)c(Cl)c1 | inconclusive: 16.9 µM [inhibitor, partial curve] | 
CCOC(=O)c1c(NC(=O)c2ccccc2Cl)sc2c1CCc1ccccc1-2 | inconclusive: 30.1 µM [inhibitor, partial curve, poor fit] | 
Cc1ccc(N2CCN(S(=O)(=O)c3ccc4c(c3)n(C)c(=O)c(=O)n4C)CC2C)cc1 (stereo not drawn) |  | inactive: -1.34%
Cc1ccc(C)c(OCC(=O)O/N=C(\N)c2cccc([N+](=O)[O-])c2)c1 |  | inactive: -4.01%
Cc1ccc(S(=O)(=O)N(CC(=O)N/N=C/c2ccccc2C(=O)O)c2cc(Cl)cc(Cl)c2)cc1 | inconclusive: 23.9 µM [inhibitor, partial curve, poor fit] | 
COc1nnc(-c2ccc(C)c(S(=O)(=O)NC(C)C)c2)c2ccccc12 |  | inactive: 4%
O=Cc1c(Cl)cccc1Cl |  | inactive: 6.02%

Structure (SMILES) | Potency | activity change, negative = inhibition
Cc1cccc(Nc2nc(Nc3cccc(C)c3)nc(N3CCOCC3)n2)c1 |  | inactive: -6.76%
c1ccc(COc2cccc(CNCc3ccccn3)c2)cc1 | inconclusive: 37.9 µM [inhibitor, single point] | 
O=C(Nc1ccccc1C(=O)O)c1ccc2ccccc2n1 | active: 6.01 µM | 
Cc1[nH]c(C)c(S(=O)(=O)NCc2ccc(F)cc2)c1C(=O)N1CCCCC1 |  | inactive: 0.0889%
CCOc1ccc(CNC(=O)CCS(=O)(=O)Cc2ccccc2C)cc1OC |  | inactive: -1.45%
CCOc1ccc(-c2nc(-c3ccccc3C)no2)cc1 | active: 1.07 µM | 
CC(=O)c1cc(OC(=O)c2ccncc2)ccc1OC(=O)c1ccncc1 | inconclusive: 33.8 µM [inhibitor, partial curve, poor fit] | 
CCOC(=O)c1nc(Nc2ccc(OC)cc2)c2ccccc2n1 | inconclusive: 37.9 µM [inhibitor, single point] | 
Cc1cccc(N=Nc2c(O)[nH]c3ccc(Br)cc23)c1 | active: 15.1 µM | 
O=C(CSc1nnc(SCc2cccc3ccccc23)s1)c1ccc2c(c1)OCO2 | inconclusive: 16.9 µM [inhibitor, partial curve, poor fit] | 
COc1ccc(-c2ncc(CN3CCN(CCC(C)C)C(CCO)C3)cn2)cc1 (stereo not drawn) | inconclusive: 26.9 µM [inhibitor, single point] | 
CCOC(=O)c1csc(NC(=O)C2=COCCO2)n1 | active: 15.1 µM | 
Cc1ccc(S(=O)(=O)c2nc(-c3cccs3)oc2SC(C)c2ccccc2)cc1 (stereo not drawn) |  | inactive: 1.67%
Cc1c(C(=O)Nc2ccccc2)oc2c1C(=O)CC(C)(C)C2 | inconclusive: 26.9 µM [inhibitor, partial curve, poor fit] | 
O=C(CCN1C(=O)/C(=C/c2ccccc2Cl)SC1=S)NCCc1ccc(O)cc1 |  | inactive: 0.421%
CCS(=O)(=O)N1CCc2cc(C(=O)N3CCN(c4ccccc4)CC3)ccc21 |  | inactive: 2.03%
Cc1ccc(OC/C(O)=C(\C#N)c2nc3ccccc3s2)cc1 | inconclusive: 33.8 µM [inhibitor, single point] | 
O=C1/C(=C/c2ccccn2)SC(=S)N1c1ccc(O)cc1 | inconclusive: 7.57 µM [inhibitor, partial curve, poor fit] | 
COc1cccc2cc(C(=O)NCCC3=CCCCC3)c(=O)oc12 | inconclusive: 21.3 µM [inhibitor, partial curve] | 
CC(C)c1ccc(NC(=O)C2CCN(c3ncnc4c3nc3n4CCCCC3)CC2)cc1 |  | inactive: -0.703%
COc1ccc(C(CC(=O)Nc2nccs2)C(C)C)cc1 (stereo not drawn) |  | inactive: -0.614%
CCOC(=O)C1C(c2cccc(F)c2)NC(=S)NC1(O)C(F)(F)F (stereo not drawn) |  | inactive: -0.874%
O=C(O)CCCC(=O)Nc1cccc(-c2nc3ccccc3[nH]2)c1 | active: 12 µM | 
CC1Oc2ccccc2N(CC(=O)NC2CC2)C1=O (stereo not drawn) |  | inactive: 0.515%
